Laboratory results reported in publication PMC4304707.
Results are given in words; binding and its absence hold for the method and conditions named. Binding seen in cells or lysates may run through a third protein. Some results given as binding are weak or reduced against the parent protein; the word gives no strength. For some of these results: Tags and fused reporters may be left off the sequences shown.

Protein sequences, listed by entry. Tags and fused reporters are not part of them.
UniProt Q9SUP6: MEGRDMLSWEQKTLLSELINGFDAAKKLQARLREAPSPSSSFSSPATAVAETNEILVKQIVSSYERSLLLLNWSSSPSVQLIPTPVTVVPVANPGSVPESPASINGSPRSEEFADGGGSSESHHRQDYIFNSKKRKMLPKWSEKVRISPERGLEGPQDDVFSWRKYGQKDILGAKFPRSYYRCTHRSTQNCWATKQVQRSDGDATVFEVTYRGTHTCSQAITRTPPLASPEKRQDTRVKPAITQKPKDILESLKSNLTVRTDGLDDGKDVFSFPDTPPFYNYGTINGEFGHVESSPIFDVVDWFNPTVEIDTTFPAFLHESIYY

T1: ARF3-cYFP (Arabidopsis) (UniProt O23661)
T1 sequence: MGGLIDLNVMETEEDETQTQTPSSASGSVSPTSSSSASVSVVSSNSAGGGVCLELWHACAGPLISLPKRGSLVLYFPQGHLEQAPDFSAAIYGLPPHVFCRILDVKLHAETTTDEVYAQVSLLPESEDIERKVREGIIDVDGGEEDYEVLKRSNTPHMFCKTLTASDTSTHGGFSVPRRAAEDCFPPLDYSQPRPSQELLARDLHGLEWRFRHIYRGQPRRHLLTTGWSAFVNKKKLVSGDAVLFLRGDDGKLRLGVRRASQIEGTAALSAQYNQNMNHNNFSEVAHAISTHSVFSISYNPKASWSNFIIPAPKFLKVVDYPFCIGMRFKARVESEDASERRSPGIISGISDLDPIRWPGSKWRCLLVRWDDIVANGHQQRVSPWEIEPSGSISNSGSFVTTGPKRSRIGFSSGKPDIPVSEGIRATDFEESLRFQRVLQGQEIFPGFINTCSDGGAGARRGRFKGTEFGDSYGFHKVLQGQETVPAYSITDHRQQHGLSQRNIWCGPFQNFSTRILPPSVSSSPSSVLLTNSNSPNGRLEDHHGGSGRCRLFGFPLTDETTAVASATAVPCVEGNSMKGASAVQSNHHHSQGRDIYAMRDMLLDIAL

T2: ARF5 (Arabidopsis) (UniProt P93024)
T2 sequence: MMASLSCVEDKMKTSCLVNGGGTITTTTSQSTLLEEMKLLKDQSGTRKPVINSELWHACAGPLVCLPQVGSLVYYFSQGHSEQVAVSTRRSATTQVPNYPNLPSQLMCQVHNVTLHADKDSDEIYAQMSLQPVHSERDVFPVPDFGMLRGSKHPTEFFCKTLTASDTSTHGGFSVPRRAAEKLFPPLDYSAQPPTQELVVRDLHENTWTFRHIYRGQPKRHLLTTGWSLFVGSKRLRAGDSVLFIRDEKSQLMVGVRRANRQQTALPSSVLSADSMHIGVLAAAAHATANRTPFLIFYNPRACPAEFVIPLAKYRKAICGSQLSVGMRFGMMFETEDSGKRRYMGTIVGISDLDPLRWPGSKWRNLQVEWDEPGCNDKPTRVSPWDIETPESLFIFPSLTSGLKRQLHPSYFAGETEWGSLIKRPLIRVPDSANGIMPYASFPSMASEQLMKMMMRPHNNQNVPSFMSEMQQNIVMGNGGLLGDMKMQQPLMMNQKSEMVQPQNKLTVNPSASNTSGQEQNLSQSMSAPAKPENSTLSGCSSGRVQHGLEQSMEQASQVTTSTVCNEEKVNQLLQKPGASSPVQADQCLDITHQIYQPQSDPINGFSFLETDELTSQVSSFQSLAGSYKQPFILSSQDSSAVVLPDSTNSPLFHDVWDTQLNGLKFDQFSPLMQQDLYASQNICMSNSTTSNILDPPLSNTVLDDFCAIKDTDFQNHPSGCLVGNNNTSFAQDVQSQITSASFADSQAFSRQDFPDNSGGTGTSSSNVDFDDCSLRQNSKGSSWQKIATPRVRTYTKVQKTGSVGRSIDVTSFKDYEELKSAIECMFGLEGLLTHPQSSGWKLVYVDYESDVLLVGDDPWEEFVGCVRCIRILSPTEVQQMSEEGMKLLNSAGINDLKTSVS

T3: ARF5Δ722-cYFP (Arabidopsis) (UniProt P93024)
T3 sequence: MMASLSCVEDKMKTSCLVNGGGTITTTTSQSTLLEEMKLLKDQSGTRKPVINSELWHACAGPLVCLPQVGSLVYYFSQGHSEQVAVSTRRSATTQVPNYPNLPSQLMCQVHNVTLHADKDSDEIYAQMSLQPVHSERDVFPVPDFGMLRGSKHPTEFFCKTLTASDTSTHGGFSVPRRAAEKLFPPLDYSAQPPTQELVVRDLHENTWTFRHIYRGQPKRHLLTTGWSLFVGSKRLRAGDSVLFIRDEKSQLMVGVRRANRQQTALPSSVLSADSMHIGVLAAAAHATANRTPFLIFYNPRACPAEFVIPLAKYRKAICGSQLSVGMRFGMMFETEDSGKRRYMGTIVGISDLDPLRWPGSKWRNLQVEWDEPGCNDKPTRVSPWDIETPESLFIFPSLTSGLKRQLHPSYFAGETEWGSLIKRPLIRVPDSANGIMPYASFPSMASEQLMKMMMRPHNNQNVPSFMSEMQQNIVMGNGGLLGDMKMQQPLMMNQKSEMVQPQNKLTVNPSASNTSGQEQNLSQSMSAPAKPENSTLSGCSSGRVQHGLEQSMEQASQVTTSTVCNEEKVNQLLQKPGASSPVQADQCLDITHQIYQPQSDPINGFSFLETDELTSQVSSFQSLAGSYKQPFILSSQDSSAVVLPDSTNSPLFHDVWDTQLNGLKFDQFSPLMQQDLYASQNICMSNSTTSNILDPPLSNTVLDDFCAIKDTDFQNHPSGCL

T4: WRKY40 (Arabidopsis) (UniProt Q9SAH7)
T4 sequence: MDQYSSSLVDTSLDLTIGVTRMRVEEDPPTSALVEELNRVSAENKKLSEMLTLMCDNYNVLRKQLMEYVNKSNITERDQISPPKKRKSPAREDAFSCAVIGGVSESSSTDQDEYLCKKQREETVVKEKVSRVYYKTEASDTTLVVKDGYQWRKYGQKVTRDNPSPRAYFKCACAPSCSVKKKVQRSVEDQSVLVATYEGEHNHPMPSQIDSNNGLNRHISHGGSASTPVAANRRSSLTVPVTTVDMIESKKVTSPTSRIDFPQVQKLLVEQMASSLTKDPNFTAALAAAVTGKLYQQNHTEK


Experiments:
Test in all cases: split reporter; BiFC: cYFP and nYFP fusion constructs (20 μg each) co-transfected into Arabidopsis mesophyll protoplasts (PEG-calcium), 16–18 h in the dark at room temperature, confocal laser scanning microscopy; signal restricted to the nucleus
[1] = target: T1, ARF3-cYFP (Arabidopsis)
[2] = target: T2, ARF5 (Arabidopsis)
[3] = target: T3, ARF5Δ722-cYFP (Arabidopsis)
[4] = target: T4, WRKY40 (Arabidopsis)
[5] = target: WRKY53-cYFP (Arabidopsis) (UniProt Q9SUP6)

Row | Binder | binding [1] | binding [2] | binding [3] | binding [4] | binding [5]
1 | ARF5 (protein, UniProt P93024 1-902) MMASLSCVEDKMKTSCLVNGGGTITTTTSQSTLLEEMKLLKDQSGTRKPVINSELWHACAGPLVCLPQVGSLVYYFSQGHSEQVAVSTRRSATTQVPNYPNLPSQLMCQVHNVTLHADKDSDEIYAQMSLQPVHSERDVFPVPDFGMLRGSKHPTEFFCKTLTASDTSTHGGFSVPRRAAEKLFPPLDYSAQPPTQELVVRDLHENTWTFRHIYRGQPKRHLLTTGWSLFVGSKRLRAGDSVLFIRDEKSQLMVGVRRANRQQTALPSSVLSADSMHIGVLAAAAHATANRTPFLIFYNPRACPAEFVIPLAKYRKAICGSQLSVGMRFGMMFETEDSGKRRYMGTIVGISDLDPLRWPGSKWRNLQVEWDEPGCNDKPTRVSPWDIETPESLFIFPSLTSGLKRQLHPSYFAGETEWGSLIKRPLIRVPDSANGIMPYASFPSMASEQLMKMMMRPHNNQNVPSFMSEMQQNIVMGNGGLLGDMKMQQPLMMNQKSEMVQPQNKLTVNPSASNTSGQEQNLSQSMSAPAKPENSTLSGCSSGRVQHGLEQSMEQASQVTTSTVCNEEKVNQLLQKPGASSPVQADQCLDITHQIYQPQSDPINGFSFLETDELTSQVSSFQSLAGSYKQPFILSSQDSSAVVLPDSTNSPLFHDVWDTQLNGLKFDQFSPLMQQDLYASQNICMSNSTTSNILDPPLSNTVLDDFCAIKDTDFQNHPSGCLVGNNNTSFAQDVQSQITSASFADSQAFSRQDFPDNSGGTGTSSSNVDFDDCSLRQNSKGSSWQKIATPRVRTYTKVQKTGSVGRSIDVTSFKDYEELKSAIECMFGLEGLLTHPQSSGWKLVYVDYESDVLLVGDDPWEEFVGCVRCIRILSPTEVQQMSEEGMKLLNSAGINDLKTSVS | no binding | binds | no binding | binds | no binding
2 | WRKY40 (protein, UniProt Q9SAH7 1-302) MDQYSSSLVDTSLDLTIGVTRMRVEEDPPTSALVEELNRVSAENKKLSEMLTLMCDNYNVLRKQLMEYVNKSNITERDQISPPKKRKSPAREDAFSCAVIGGVSESSSTDQDEYLCKKQREETVVKEKVSRVYYKTEASDTTLVVKDGYQWRKYGQKVTRDNPSPRAYFKCACAPSCSVKKKVQRSVEDQSVLVATYEGEHNHPMPSQIDSNNGLNRHISHGGSASTPVAANRRSSLTVPVTTVDMIESKKVTSPTSRIDFPQVQKLLVEQMASSLTKDPNFTAALAAAVTGKLYQQNHTEK | no binding | binds | no binding | binds | no binding
